PubChem BioAssay AID1508624 (National Center for Advancing Translational Sciences (NCATS), 2021)
About 120 (0.25%) of roughly 48,000 compounds were called active. Not shown: some 4% with an inconclusive outcome. Calls come from the whole dose curve; as a rule, active = well fitted activation curve with a large enough effect; inconclusive = small, poorly fitted or top-dose-only effect, or another doubt; inactive = no such curve, though single readings can be large or run the other way. This is one part of the list.

Experiment: Primary qHTS for Identification of Small Molecule Activators of Huntingtin-Antisense Promoter Activity; note: nearly all actives have a fitted effect of over 55% in size
Conditions: HEK293 HTT-AS promoter firefly luciferase reporter, 24 h; series mostly up to 57.5 µM; activity change, positive = activation: at the top concentration
Summary of the method: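 Quantitative HTS used concentration series of up to 57.5 uM final on HEK293 luciferase reporter cells, 24 h at 37 degrees C. Readout was Dual-Glo firefly luminescence.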

Activity change, positive = activation, inactive:
COc1ccc(-c2nc(CCNC(=O)c3cccs3)cs2)cc1 -21.8%
CNC(=O)Cn1nc(-c2ccc(Cl)cc2)c2ccccc2c1=O 7.3% [at 11.5 µM, percent change from vehicle, -100% = no light]
COc1ccc(NC(=O)CSC2=Nc3ccccc3C3=NC(CCC(=O)NCc4ccc(F)cc4)C(=O)N23)cc1Cl (stereo unspecified) -23.8%
CCCCC(CC)CNC(=O)CN(C)S(=O)(=O)c1ccc2c(c1)c(=O)n(C)c(=O)n2C (stereo unspecified) -19.6%
CCOC(=O)c1ccc(NC(=O)CC2Sc3ccc(C(F)(F)F)cc3NC2=O)cc1 (stereo unspecified) -33.9%
Cc1nn(C)c2c1c(-c1ccccc1)cc(=O)n2Cc1ccccc1Cl -19.1%
COc1cccc(N2CCN(C(=O)C3CCN(S(=O)(=O)c4cccc5nonc45)CC3)CC2)c1 -22.4%
Cc1ccc(CN(C(=O)COc2ccc(Cl)cc2)c2ccccn2)o1 -11.7%
Cc1cccc(-c2nnn3c2nc(NCCc2ccc(S(N)(=O)=O)cc2)c2ccccc23)c1 -30.6%
COc1ccc(OC)c(NC(=O)CSc2cn(CC(=O)N3CCCCCC3)c3ccccc23)c1 -34%
O=C(CS(=O)(=O)c1cccc2nsnc12)Nc1ccc(F)cc1 -14.9%
COCCNC(=O)CSc1nc2cc3c(cc2c(=O)n1CCCC(=O)NCc1ccc(OC)cc1)OCO3 -8.05%
COC(=O)c1cc(S(=O)(=O)NCC2CCN(Cc3ccc(F)cc3)CC2)c[nH]1 -6.57%
COCCNC(=O)c1ccc2c(c1)N(Cc1cc(C)ccc1C)C(=O)c1ccccc1S2(=O)=O -21.6%
COc1ccc(S(=O)(=O)N2CCN(c3ccc(Cl)c(Cl)c3)CC2)c2ccccc12 -14.4%
CCSc1ncc(Cl)c(C(=O)N(Cc2ccc(N(C)C)cc2)Cc2ccco2)n1 -41.3%
OCCNC1CCCc2c1[nH]c1ccc(-c3ccccc3)cc21 (stereo unspecified) -4.87%
Cc1cc(NCc2ccccc2Cl)n2cnnc2n1 -43.8%
Cc1ccc(NC(=O)CSc2nc3ccccc3nc2Cc2ccccc2)c(C)c1 -6.15%
COc1ccc(S(=O)(=O)Nc2nnc(CC(C)C)s2)cc1 -25.9%
O=C(Nc1ccc(N2CCN(c3ccc(F)cc3)CC2)c(C(=O)O)c1)c1ccccc1F 2.8%
CC1=C(C(=O)Nc2cccnc2)C(c2ccccc2)n2nc(SCc3ccccc3Cl)nc2N1 (stereo unspecified) -14.3%
CCOC(=O)c1ccc(NC(=O)CSc2nc3ccccc3c(=O)n2CCNC(C)=O)cc1 -2.49%
CCc1ccc(NC(=O)CN2C(=O)C(c3ccc(F)cc3)=NC2(C)C)cc1 -17.1%
Cc1ccc(CCNC(=O)Cn2ncc3c([nH]c4ccc(C)cc43)c2=O)cc1 -12.7%
CCCCOc1ccc(Cn2c(=O)oc3ccc(C)cc32)cc1 -21.2%
Cc1nc2nc(NCc3cccc(Cl)c3)[nH]n2c(=O)c1Cc1ccccc1 16%
COc1ccc(-c2cc3ccc(O)c(CN4CCCC(C)C4)c3oc2=O)cc1 (stereo unspecified) -19.7%
COC(=O)c1ccc(Cn2c(SCc3ccccc3F)nc3ccncc32)cc1 -9.81%
CCOc1ccc(CCNC(=O)Cn2c(=O)c3cccn3c3ccc(F)cc32)cc1OCC -5.37%
COc1ccc(OCCn2c(C(C)Oc3ccccc3)nc3ccccc32)cc1 (stereo unspecified) -20.1%
CC1C(=O)Nc2ccc(S(=O)(=O)NCc3ccc(N(C)C)cc3)cc2NC1=O (stereo unspecified) -11.6%
Cc1ccc(Cl)cc1-n1ncc2c(NCc3ccc(F)cc3)ncnc21 -28.5%
COc1cccc(C(=O)c2cn(CC(=O)Nc3cccc(C(F)(F)F)c3)c3nc(C)ccc3c2=O)c1 -30.2%
CCN(CC)S(=O)(=O)c1ccc2c(c1)nc(CN(C)C(=O)Nc1cccc(Cl)c1)n2C 0.308%
CCCN(CCC)C(=O)CN1C(=O)CSc2ccc(S(=O)(=O)N3CCC(C)CC3)cc21 -26.2%
COc1ccc(Cn2c(CCC(=O)Nc3ccc(C)c(C)c3)nc3cccnc32)cc1 -24.9%
CC(=O)N1CCc2cc(S(=O)(=O)NC(CC(C)C)C(=O)NCCc3ccc(C)cc3)ccc21 (stereo unspecified) 18.9%
COc1ccc(CNC(=O)C2CCN(S(=O)(=O)c3ccc(F)cc3)CC2)cc1 -26.2%
CSc1ncc(C(=O)Nc2cccc(C)c2C)c(-c2ccccc2)n1 -18.7%
Cc1ccc(O)c2ncccc12 -4.28%
COC(=O)c1ccc2c(c1)N(Cc1cc(C)ccc1C)C(=O)c1ccccc1S2 -9.47%
CCN(c1ccccc1)S(=O)(=O)c1nnc(NC(=O)C(C)(C)C)s1 -19.1%
CCN1CCc2nc3sc(C(=O)c4ccccc4)c(N)c3cc2C1 12.9%
CC(CNC(=O)c1ccc(CSc2nc3ccncc3n2Cc2ccc(F)cc2)cc1)c1ccccc1 (stereo unspecified) -25.5%
CCC(C(=O)NCc1ccccc1OC)n1nc(C)n2c(cc3sccc32)c1=O (stereo unspecified) -9.57%
CCOC(=O)c1c(S(=O)(=O)NCC(=O)Nc2ccc(C)c(Cl)c2)c(C)n(C)c1C -16.7%
CSc1ncc(C(=O)NCc2ccccc2)c(-c2ccccc2)n1 -21.1%
COc1ccc(NC(=O)C2CCCN2S(=O)(=O)c2cccc3cccnc23)cc1OC (stereo unspecified) -11.2%
CC(C)Oc1ccc(CNC(=O)c2ccc(NC(=O)N3CCSc4ncccc43)cc2)cc1 -26.9%
CCOc1ccc(C2c3[nH]c4ccccc4c3CCN2C(=O)Cc2cccc(OCC)c2OCC)cc1 (stereo unspecified) -18.8%
Cc1ccccc1Cn1nnc2c(=O)[nH]c(C3CCN(C(=O)c4ccccc4)CC3)nc21 -15%
CCOC(=O)c1cnc2ccc(C(=O)OC)cc2c1Nc1ccccc1CC -47.9%
Cc1cn([C@H]2C[C@H](F)[C@@H](CO)O2)c(=O)[nH]c1=O -11.7%
Cc1cc(C)cc(-n2ccnc2SCC(=O)Nc2nc3ccccc3s2)c1 -38%
CCCCNc1nc(Oc2ccc(OCC(N)=O)nn2)nc(N2CCOCC2)n1 1.21%
COc1ccc(C2C(=O)c3ccccc3C2=O)cc1 3.53%
CC(C)n1c(C=C[C@H](O)C[C@H](O)CC(=O)O)c(-c2ccc(F)cc2)c2ccccc21 22.9%
CCOc1cc(C2c3c(oc4ccc(F)cc4c3=O)C(=O)N2Cc2ccco2)ccc1O (stereo unspecified) -16.5%
Cc1ccc(-c2cc(C(=O)NCc3cnn(C)c3)c3cc(Br)ccc3n2)cc1 17.1%
Cc1ccc(-n2c(SCC(=O)Nc3ccc4c(c3)OCO4)nc3c([nH]c4ccccc43)c2=O)cc1 5.36%
